Experimental findings from patent US20220033450A1, “VIRALLY EXPRESSED INHIBITORS OF PDZ DOMAINS, SUCH AS PICK1 AND USES THEREOF” (University of Copenhagen, priority 2018, published 2022) are described below.

Series [1] is described as follows: Size exclusion chromatography of synthetic peptides alone (oligomeric assembly). Format: physicochemical. The following applies: N-terminal Biotin and Ahx linker, Superdex200 Increase 10/300. For orientation: SEC sorts molecules by how far they enter the pores of the column.
For series [2], the target named is T1, PICK1 (Rattus norvegicus, UniProt Q9EP80).
T1 construct: GST (inferred from the pGEX4T2 vector and glutathione-Sepharose capture) (N, cleaved yes); made in house; host or cells: E. coli BL21-DE3-pLysS
T1 sequence (Q9EP80 whole entry): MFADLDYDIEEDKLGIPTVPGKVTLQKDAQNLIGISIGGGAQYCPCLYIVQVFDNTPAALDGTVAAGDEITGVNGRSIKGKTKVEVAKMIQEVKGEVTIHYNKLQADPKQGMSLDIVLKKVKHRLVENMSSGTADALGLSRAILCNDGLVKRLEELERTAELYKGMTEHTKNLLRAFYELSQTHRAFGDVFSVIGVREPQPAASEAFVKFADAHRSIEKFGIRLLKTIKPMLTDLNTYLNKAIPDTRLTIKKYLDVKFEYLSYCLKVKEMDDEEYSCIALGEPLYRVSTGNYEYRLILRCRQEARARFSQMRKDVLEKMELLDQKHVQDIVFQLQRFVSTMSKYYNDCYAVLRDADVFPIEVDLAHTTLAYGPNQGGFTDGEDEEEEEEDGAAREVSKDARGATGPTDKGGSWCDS
The experiment in a line: Size exclusion chromatography of PICK1 incubated with peptide (induction of tetrameric/higher oligomers of PICK1). As to conditions: PICK1 40 μM; for induction of tetrameric configuration of PICK1 (SEC): peptide 10 μM (4:1); for oligomerization of PICK1 (SEC): Example 9. Format: biochemical. As to the method:
Protein expression was induced with 10 mM Isopropyl β-D-1-thiogalactopyranoside (IPTG) and grown overnight at 20° C. […] 1 L culture. Resuspended pellet was frozen at −80° C. to induce cell lysis. The bacterial suspension was thawed and cleared by centrifugation.

Series [3] concerns the target T1, PICK1. The experiment in a line: Fluorescence polarization competition binding to PICK1, 5FAM DAT C5 tracer. As to the method: Fluorescence polarization was carried out in saturation mode and competition mode.
In general terms: Polarisation of emitted light reports the rotation of a fluorescent probe.

A further series is described as follows: Circular dichroism. The format is physicochemical. As to conditions: 8 μM peptide, 50 mM NaPi pH 8, 25° C. (In general: Circular dichroism is the unequal absorption of left and right circularly polarised light.)
Where [4] appears, read: peptide 20 μM or 400 μM (2:1 and 1:10 PICK1:peptide).

Entries after “also recorded” stand apart in the source; their conditions may differ.

Consider “RMKQLEDKVEELLSKNYHLENEVARLKKLV-GGGGS-HWLKD (RMKQLEDKVEELLSKNYHLENEVARLKKLVGGGGSHWLKD; GCN4-GS4-V-to-D)”, for which the “oligomeric assembly of the peptide (SEC elution)” value in series [1] was “eluted as a homodimer; also recorded: intact dimer formation”. The “induction of tetrameric configuration of PICK1 (SEC)” value with PICK1 [2] is reported as “eluted exclusively in the dimeric peak of PICK1; also recorded: did not cause the shift in PICK1 elution”. Moreover, the “oligomerization of PICK1 (SEC)” value with PICK1 [2] (setting [4]) is “did not cause PICK1 to oligomerize even at higher concentration”; in the series with PICK1 [2] (peptide 400 μM), “did not cause PICK1 to oligomerize”. For the same substance, the “binding to PICK1” value with PICK1 [3] is reported as “did not show any binding up to 100 μM; also recorded: no binding to PICK1”.
As for “RMKQLEPKVEELLPKNYHLENEVARLKKLV-GGGGS-HWLKV (RMKQLEPKVEELLPKNYHLENEVARLKKLVGGGGSHWLKV; N-terminal biotin and Ahx linker; GCN4p1(7P14P)-GS4-DATC5) [GCN4-GS4-7P14P, variant with Proline in position 7 and 14; tested with N-terminal Biotin and Ahx linker]”, the “oligomeric assembly of the peptide (SEC elution)” value in series [1] is “partly shifted to elution at 19.7 ml corresponding to a monomer; also recorded: mixture of dimers and monomers”. Besides, in the series with PICK1 [2], the “induction of tetrameric configuration of PICK1 (SEC)” value is “eluted in the dimeric peak of PICK1; also recorded: not capable of inducing tetramer formation of PICK1”. Besides, the “oligomerization of PICK1 (SEC)” value in the series with PICK1 [2] (setting [4]) is recorded as “did not cause PICK1 to oligomerize even at higher concentration”; in the series with PICK1 [2] (peptide 400 μM), “also eluted at 11.7 ml”. The “secondary structure by circular dichroism” value in the series “Circular dichroism” is recorded as “random coil”.
